“And” between values parts separate entries of the source, which are not always exact repeats. Equal values may be shown once. The list shows a part of the results. The main result of the screen is listed elsewhere. These columns were measured beside it and carry no call.
Legend:
Assay in all cases: Primary Screen for Target Class Profiling of Small Molecule Inhibitors of Methyltransferases
[1] = molecular target: Glycine N-methyltransferase (Homo sapiens) (UniProt Q14749); settings: purified enzyme, MTase-Glo SAH luminescence; measured here: GNMT inhibition; at 40 µM; stronger effect = lower value
How it was run: (§1)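 Each enzyme was reacted with SAM and its substrate, with compounds tested once at 40 uM; SAH formed was read by MTase-Glo luminescence.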

[2] = molecular target: Guanidinoacetate N-methyltransferase (Homo sapiens) (UniProt Q14353); settings: purified enzyme, MTase-Glo SAH luminescence; measured here: GAMT inhibition; at 40 µM; stronger effect = lower value
How it was run: as §1

[3] = molecular target: Histamine N-methyltransferase (Homo sapiens) (UniProt P50135); settings: purified enzyme, MTase-Glo SAH luminescence; measured here: HNMT inhibition; at 40 µM; stronger effect = lower value
How it was run: as §1

[4] = molecular target: Nicotinamide N-methyltransferase (Homo sapiens) (UniProt P40261); settings: purified enzyme, MTase-Glo SAH luminescence; measured here: NNMT inhibition; at 40 µM; stronger effect = lower value
How it was run: as §1

[5] = molecular target: Phenylethanolamine N-methyltransferase (Homo sapiens) (UniProt P11086); settings: purified enzyme, MTase-Glo SAH luminescence; measured here: PNMT inhibition; at 40 µM; stronger effect = lower value
How it was run: as §1
On the % scale 0 is the no-effect control and ±100 the full control effect.

SMILES | activity change, negative = inhibition [1] [%] | activity change, negative = inhibition [2] | activity change, negative = inhibition [3] [%] | activity change, negative = inhibition [4] | activity change, negative = inhibition [5]
CCOC(=O)c1sc(NC(=O)[C@H](C(C)C)n2c(=O)[nH]c3ccccc3c2=O)nc1C | 3.78 | 6.56% | 4.59 | -17.8% | -2.9%
O=[S+]([O-])(Nc1ccccc1)c1ccc2c(c1)OCCN(Cc1nccs1)C2 | -9.63 | -7.53% | -4.02 | -16.8% | -6.21%
COC(=O)C1=C(C)NC(C)=C(C(=O)O[C@@H]2CCCN(Cc3ccccc3)C2)[C@@H]1c1cccc([N+](=O)[O-])c1 | -1.94 | -23.9% | -11.6 | -34.6% | -17%
CCc1cc2c(cc3n2CC(C)(C(=O)NC2CCCCCC2)N(c2cc(C)cc(C)c2)C3=O)s1 (stereo not drawn) | 6.48 | 4.08% | 7.42 | 11.5% | 3.4%
CCc1cc2c(cc3n2CC(C)(C(=O)NC2CCC(C)CC2)N(CC(C)c2ccccc2)C3=O)s1 (stereo not drawn) | 0.147 | 4.94% | -2.51 | 0.455% | -2.45%
CCCN1C(=O)c2cc3sccc3n2CC1(C)C(=O)NC1CCCCCC1 (stereo not drawn) | -2.48 | 3.46% | -2.26 | -4.83% | -7.31%
Cn1nnnc1C1CCCN(C(=O)CCC2CCCC2)C1 (stereo not drawn) | -4.52 | -4.63% | -1.69 | -8.55% | -7.77%
COc1ccc(CN2C(=O)[C@H](OC)[C@@H]2C2=CCN(C(=O)CC(C)C)CC2)cc1 | -4.77 | -10.9% | -4.81 | -13% | -10.3%
CNC(=O)Nc1ccc(C)n(CC(=O)N2CCN(c3cc(C)ccc3C)CC2)c1=O | -2.07 | -0.167% | 0.216 | 0.14% | 1.63%
CCC[C@@H]1C[C@@H](C(=O)N[C@@H]([C@H]2O[C@H](SC)[C@H](O)[C@@H](O)[C@H]2O)[C@H](C)Cl)N(C)C1 | – | 9.67% and 0.97% | – | -4.53% and -7.69% | 5.49% and -4.6%
O=S(=O)(c1ccccc1C(F)(F)F)N1CC(c2nc(-c3ccncc3)no2)C1 | -4.59 | -0.78% | -1.66 | -8.63% | -6.54%
COc1cc(OC)c(NC(=O)N2CCn3cccc3C2Cc2ccccc2)cc1Cl (stereo not drawn) | -18.3 | -0.065% | -19 | -27.6% | -17.3%
CC(=O)OC/C(=C/C(=O)O)CC[C@@H]1C(C=O)=CC[C@@H]2C(C)(C)CCC[C@@]12C | -12.9 | -0.112% | 1.9 | -17.8% | -3.65%
Cc1ccc(-c2c(C(=O)CF)n(CCCO)c3ncnc(N)c23)cc1 | -3.07 | 4.73% | 7.08 | -26.1% | -5.35%
CCCCCCC/C=C\CCCCCCCCC(=O)O | -1.55 | 9.83% | 4.05 | -11.6% | -1.15%
Fc1ccc(-c2cccc(CN3CC4CCC(C3)N4c3ccc(C(F)(F)F)cc3)c2)c(F)c1 | -9 | -10.7% | -6.42 | -17.7% | -28.2%
Cc1cccc(NC(=O)N2CCn3cccc3C2Cc2ccccc2)c1C (stereo not drawn) | -6.86 | 3.51% | -6.85 | -4.82% | -6.09%
O=C(NCC1CN(C(=O)Cc2ccc(C(F)(F)F)cc2)CC12CN(c1ccccc1)C2)c1ccccc1 (stereo not drawn) | -5.88 | 2.05% | 0.106 | -4.73% | -6.78%
Cc1ccc(N(C)S(=O)(=O)c2ccc3c(c2)NC(=O)CC(=O)N3)cc1 | -5.99 | 1.99% | -2.85 | -11.7% | -6.94%

SMILES | activity change, negative = inhibition [1] [%] | activity change, negative = inhibition [2] | activity change, negative = inhibition [3] [%] | activity change, negative = inhibition [4] | activity change, negative = inhibition [5]
Cc1cccc(NC(=O)CSc2nnc3n(CCCOC(C)C)c(=O)c4ccccc4n23)c1 | -3.73 | 0% | 4.33 | -2.46% | -0.948%
O=C(O)c1ccc2c(c1)C1C=CCC1C(c1ccc(Cl)cc1)N2 (stereo not drawn) | -63.6 | -21.2% | -14.2 | -12.3% | -24.1%
CCOc1ccc(C(=O)N2c3ccccc3CC2c2nc(CCOC)no2)cc1 (stereo not drawn) | 0.406 | -7.53% | 0.474 | -3.41% | -2.94%
CCn1c(=O)n(CC)c2cc(S(=O)(=O)Nc3ccc(Br)cc3)ccc21 | 0.211 | 0% | 1.87 | -9.89% | -0.582%
O=C(CCc1nnc2n(Cc3ccc(F)cc3)c(=O)c3ccccc3n12)N1CCN(c2ccc(F)cc2)CC1 | 0.857 | 0% | 6.86 | -0.615% | 0.586%
COc1ccc(OC)c(CCNC(=O)CCc2nnc3n(CC(C)C)c(=O)c4ccccc4n23)c1 | -2.66 | 4.04% | 6.63 | -1.56% | 0.641%
O=C1CN(Cc2ccccc2F)S(=O)(=O)c2ccccc2N1Cc1cccc(F)c1 | 7.97 | 0% | 8.69 | 4.29% | 4.84%
O=C(O)CCCC(=O)N[C@H]1CO[C@H]2[C@@H]1OC[C@@H]2Nc1nccc(-c2ccc3c(c2)OCO3)n1 | -3.87 | -0.596% | -1.18 | -1.18% | -4.46%
COc1ccc(-c2cc3n(n2)CC(C)(C(=O)NCc2ccccc2OC)N(c2cc(C)ccc2C)C3=O)cc1 (stereo not drawn) | -2.09 | 2.48% | -2.16 | -7.91% | -4.71%
CCC(C(=O)NCc1ccccc1C)n1ccc2cc(S(=O)(=O)N3CCCCC3)ccc21 (stereo not drawn) | 5.85 | 0.581% | 0.987 | 4.04% | 2.79%
O=C1CCCCC(CNC(=O)C2(c3ccccc3)CC2)N1 (stereo not drawn) | -2.56 | -0.769% | -0.575 | -10.7% | 8.72%
NC(N)=NC(=O)Cc1c(Cl)cccc1Cl | 1.71 | 12.2% | -6.87 | -1.93% | 8.06%
CC1(C)O[C@H]2CC(=O)OC[C@]23[C@H]2CC[C@@]4(C)[C@H](c5ccoc5)OC(=O)[C@H]5O[C@]54[C@]2(C)C(=O)C[C@@H]13 | 0 | 2.02% | 1.01 | -10.2% | 5.03%
Cc1nn2c(SCC(=O)Nc3cccc(F)c3)nnc2[nH]c1=O | 14 | 0% | 8.89 | 3.44% | 2.43%
C=CC1(C)CC(O)C(C(=C)C(=O)OC)C(O)C1C(=C)CO (stereo not drawn) | -8.99 | -15.8% | -3.52 | -26.1% | -1.66%
Cc1ccc(CNC(=O)C2(C)Cn3nc(C(=O)NC4CCCCC4)cc3C(=O)N2C)cc1 (stereo not drawn) | 9.22 | 4.99% | 9.5 | 6.78% | 7.02%
CC1(C(=O)NC2CCCCCCC2)Cn2c(cc3sccc32)C(=O)N1C1CCCCCC1 (stereo not drawn) | -0.287 | 5.81% | 2.94 | 3.09% | -0.098%
O=C(c1ccc(Cn2cccn2)o1)N1CCC2(CC1)[C@H](O)C[C@@H]2O | -1.67 | 0.154% | -1.25 | 1.18% | -3.25%
COc1ccc(CNc2nc3c(S(=O)(=O)c4ccc(F)cc4)nnn3c3ccccc23)cc1 | -10 | 1.21% | -7.31 | -8.12% | -8.43%
